These results are taken from PMC4336329 (PLoS ONE, 2015).

The campaign covered roughly 310,000 compounds. About 14,000 (4.5%) showed an effect of 50% or more. Effects have a minus sign here. The list shows a part of the results.
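Note: peak tail current of the secondary pulse compared with the same well before compound.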

human ether-à-go-go-related gene (hERG) potassium channel, sequence (Q12809 whole entry, looked up): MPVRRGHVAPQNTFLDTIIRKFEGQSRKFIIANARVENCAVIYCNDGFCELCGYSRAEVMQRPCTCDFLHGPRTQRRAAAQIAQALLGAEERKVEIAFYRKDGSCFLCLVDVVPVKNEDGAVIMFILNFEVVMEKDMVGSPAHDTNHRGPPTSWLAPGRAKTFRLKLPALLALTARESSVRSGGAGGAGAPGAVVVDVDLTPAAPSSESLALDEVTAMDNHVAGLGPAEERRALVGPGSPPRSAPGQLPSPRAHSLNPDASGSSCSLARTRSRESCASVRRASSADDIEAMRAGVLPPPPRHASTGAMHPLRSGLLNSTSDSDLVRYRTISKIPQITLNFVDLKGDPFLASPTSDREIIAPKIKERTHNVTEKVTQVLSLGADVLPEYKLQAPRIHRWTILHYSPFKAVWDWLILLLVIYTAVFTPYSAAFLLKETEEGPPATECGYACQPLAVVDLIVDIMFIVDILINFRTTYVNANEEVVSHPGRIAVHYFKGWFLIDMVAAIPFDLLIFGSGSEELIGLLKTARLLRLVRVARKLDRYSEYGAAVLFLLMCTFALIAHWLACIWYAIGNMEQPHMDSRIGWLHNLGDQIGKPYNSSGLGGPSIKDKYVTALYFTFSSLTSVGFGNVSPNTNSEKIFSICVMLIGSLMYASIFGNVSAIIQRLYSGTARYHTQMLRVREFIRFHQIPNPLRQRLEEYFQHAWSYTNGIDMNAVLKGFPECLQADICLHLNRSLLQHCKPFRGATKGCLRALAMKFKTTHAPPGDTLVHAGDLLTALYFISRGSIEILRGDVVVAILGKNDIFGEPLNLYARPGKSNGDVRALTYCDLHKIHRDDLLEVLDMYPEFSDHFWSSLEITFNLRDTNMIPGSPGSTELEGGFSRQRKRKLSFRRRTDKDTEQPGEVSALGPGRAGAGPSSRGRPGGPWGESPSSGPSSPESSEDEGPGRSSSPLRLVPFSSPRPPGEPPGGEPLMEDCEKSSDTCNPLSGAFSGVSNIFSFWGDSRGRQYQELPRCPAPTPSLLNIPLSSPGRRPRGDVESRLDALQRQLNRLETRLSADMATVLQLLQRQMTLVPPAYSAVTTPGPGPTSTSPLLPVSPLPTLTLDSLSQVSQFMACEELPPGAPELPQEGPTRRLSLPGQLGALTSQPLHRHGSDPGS

This assay concerns the target human ether-à-go-go-related gene (hERG) potassium channel (human, UniProt Q12809). Description: primary screen, population patch clamp on CHO cells stably expressing hERG.
With `CCNc1ccc(Br)cc(C(=O)/C=C/c2ccc3c(c2)OCO3)c1=O`, the “hERG current change (%, negative = inhibition) at 10uM” value was found to be 1.19%.

For the compound `Cc1cccc(-n2c(SCC(=O)O)nc3sc4c(c3c2=O)CCCC4)c1`, the “hERG current change (%, negative = inhibition) at 10uM” value is listed as 16.6%.

With `O=C(c1ccc(Cl)c(S(=O)(=O)N2CCOCC2)c1)N1CCCC1`, the “hERG current change (%, negative = inhibition) at 10uM” value turned out to be 3.83%.

As to `COc1ccccc1Nc1nc(N)nc(CSc2ncccn2)n1`, the “hERG current change (%, negative = inhibition) at 10uM” value is listed as -24.2%.

As for `CN1CCN(C2=Cc3ccc(Cl)cc3Sc3ccc(F)cc32)CC1.CS(=O)(=O)O.O`, the “hERG current change (%, negative = inhibition) at 10uM” value is on record as -14.8%.

Consider `COc1ccccc1C1c2[nH]c3ccccc3c2CCN1Cc1ccc(NC(C)=O)s1` (centres unmarked), for which the “hERG current change (%, negative = inhibition) at 10uM” value is listed as -7.67%.

For the compound `CCc1c(C)c2cc(Cl)c(O)c(CN3CCCC3)c2oc1=O`, the “hERG current change (%, negative = inhibition) at 10uM” value turned out to be 7.02%.

Take `O=c1[nH]c2ccccc2n1Cc1ccc(F)cc1`: the “hERG current change (%, negative = inhibition) at 10uM” value was determined as 3.96%.

Regarding `CC(C)=C1C2CCC1C(C(=O)Nc1cc(C)cc(C)c1)C2C(=O)O` (centres unmarked), the “hERG current change (%, negative = inhibition) at 10uM” value was determined as 14%.

Turning to `CC(C)Oc1ccccc1NC(=O)CSc1nccn1C`, the “hERG current change (%, negative = inhibition) at 10uM” value was determined as 8.33%.

Turning to `O=C(COC(=O)c1ccc(S(=O)(=O)NCc2ccco2)cc1)NCc1ccc(F)cc1`, the “hERG current change (%, negative = inhibition) at 10uM” value is recorded as -10.2%.

Turning to `O=C(Nc1ccccc1)c1ccc2nsnc2c1`, the “hERG current change (%, negative = inhibition) at 10uM” value was 2.43%.

For the compound `O=C(C1CC1)N1CCN=C1SCc1ccc(F)cc1`, the “hERG current change (%, negative = inhibition) at 10uM” value was -9.05%.

Regarding `CCN(C(=O)COC(=O)c1c(-c2ccccc2)noc1C)c1c(N)n(Cc2ccccc2)c(=O)[nH]c1=O`, the “hERG current change (%, negative = inhibition) at 10uM” value worked out at 14.3%.

Consider `O=C(Nc1nncs1)C1CCCC1`, for which the “hERG current change (%, negative = inhibition) at 10uM” value worked out at 13.3%.

Take `COc1ccc(/C=C/C(=O)C(C(N)=O)=C2SCCS2)cc1`: the “hERG current change (%, negative = inhibition) at 10uM” value stood at 2.51%.

Turning to `Cc1cc(C)cc(N=C2NC(=O)/C(=C/c3cccs3)S2)c1`, the “hERG current change (%, negative = inhibition) at 10uM” value was 14.7%.

On to `O=C(NCCN1CCOCC1)C(=O)NCC1CCCO1` (centres unmarked), for which the “hERG current change (%, negative = inhibition) at 10uM” value is -2.29%.

Turning to `Cc1cc(NC(=O)CSc2nc(C(C)C)nc3sc(C)c(C)c23)no1`, the “hERG current change (%, negative = inhibition) at 10uM” value is listed as 18.8%.

Turning to `COc1cccc(/C=C/c2ccncc2)c1OC.Cl`, the “hERG current change (%, negative = inhibition) at 10uM” value is on record as -4.42%.

As for `Cc1cc(-c2nc3ncccc3o2)ccc1NC(=S)NC(=O)C(C)C`, the “hERG current change (%, negative = inhibition) at 10uM” value amounted to 9.24%.

For `COc1ccc(S(=O)(=O)NCCCc2ccccc2)cc1`, the “hERG current change (%, negative = inhibition) at 10uM” value was -13.6%.

For `COc1ccc(Nc2nccc(OC)c2C#N)cc1`, the “hERG current change (%, negative = inhibition) at 10uM” value was -38.8%.

Regarding `Cc1ccc(C(=O)NCCNC(=O)c2ccccn2)cc1`, the “hERG current change (%, negative = inhibition) at 10uM” value came to 12.9%.

Regarding `CCN(CC)c1nc2ccccc2nc1-n1nc(C)cc1C`, the “hERG current change (%, negative = inhibition) at 10uM” value is -6.86%.

Turning to `COc1cccc(C2=CC(c3cc(OC)ccc3OC)n3nnnc3N2)c1` (centres unmarked), the “hERG current change (%, negative = inhibition) at 10uM” value is given as 18.4%.

For `Cn1c(C(=O)NC2CCCCCC2)cc2c(=O)n(C)c3ccccc3c21`, the “hERG current change (%, negative = inhibition) at 10uM” value is on record as -11.8%.

For the compound `CCc1ccc2c(c1)c1nnc(NN)nc1n2CC`, the “hERG current change (%, negative = inhibition) at 10uM” value is listed as -24.6%.

Consider `CCOC(=O)c1ccc2c(c1)n(CC)c(/C=C/Nc1ccccc1)[n+]2CC.[I-]`, for which the “hERG current change (%, negative = inhibition) at 10uM” value is -80%.

For `N#Cc1c(SCc2ccc(Cl)cc2)sc(C(=O)c2ccccc2)c1N`, the “hERG current change (%, negative = inhibition) at 10uM” value was 12.5%.

Turning to `Cc1ccccc1NS(=O)(=O)c1ccc2[nH]c(=O)[nH]c2c1`, the “hERG current change (%, negative = inhibition) at 10uM” value is 22.2%.

As to `Cc1cc(C2=NNC(=NC3CC3)SC2)c(C)n1-c1ccccc1F`, the “hERG current change (%, negative = inhibition) at 10uM” value is -36%.

Turning to `Clc1ccc2c(c1)C(c1ccccc1Cl)=NCc1nncn1-2`, the “hERG current change (%, negative = inhibition) at 10uM” value was -4.37%.

Regarding `CCOC(=O)C1CCN(C(=O)CCn2c(=O)[nH]c3ccccc3c2=O)CC1`, the “hERG current change (%, negative = inhibition) at 10uM” value is recorded as -5.69%.

With `CC1Cn2c(nnc2-c2cccc(Cl)c2)S1` (centres unmarked), the “hERG current change (%, negative = inhibition) at 10uM” value is on record as -6.8%.

For the compound `CCOC(=O)N1CCN(C(=O)CCC(=O)N2CCOc3ccc(C)cc32)CC1`, the “hERG current change (%, negative = inhibition) at 10uM” value is given as -4.85%.

As for `O=C1/C(=C/c2coc3ccc(O)cc3c2=O)SC(=S)N1c1ccccc1`, the “hERG current change (%, negative = inhibition) at 10uM” value is on record as 8.42%.

On to `Cc1c(C(=O)NCCC2=CCCCC2)oc2ccc(S(=O)(=O)N3CCOCC3)cc12`, for which the “hERG current change (%, negative = inhibition) at 10uM” value is -37.2%.

For `Cc1cc(C)c(NC(=O)c2cc3c(nc4sccn43)s2)c(C)c1`, the “hERG current change (%, negative = inhibition) at 10uM” value was -5.61%.

`CCOC(=O)N1CCN(C(=O)C2CCN(S(=O)(=O)c3cc(Cl)ccc3OCC)CC2)CC1`: the “hERG current change (%, negative = inhibition) at 10uM” value is reported as -35.5%.

For the compound `O=C(CSc1nnc2scc(-c3ccccc3)n12)Nc1nsc(-c2ccccc2)n1`, the “hERG current change (%, negative = inhibition) at 10uM” value is recorded as -40.1%.

On to `COC(=O)c1cc(=O)n(Cc2ccc3c(c2)OCO3)c(=Nc2ccc(F)cc2)s1`, for which the “hERG current change (%, negative = inhibition) at 10uM” value came out at 19.9%.

On to `COc1ccc(CCNC2CC(=O)N(N(C)C)C2=O)cc1OC` (centres unmarked), for which the “hERG current change (%, negative = inhibition) at 10uM” value was 11.3%.

Regarding `OC(CN1CCOCC1)Cn1c2ccccc2c2ccccc21` (centres unmarked), the “hERG current change (%, negative = inhibition) at 10uM” value came out at 2.42%.
